Measurements taken from patent US20240050583A1, “PROTEIN-DRUG CONJUGATE AND SITE-SPECIFIC CONJUGATING METHOD” (HARBOUR BIOMED (SHANGHAI) CO., LTD, priority 2020, published 2024).
Where a chain is given by its changes, count along the chain named.

Key:
[1] = Protein purity and polymers by SEC-HPLC; conditions: purified antigen-binding protein; PR004433 from CHO, variants from HEK293
Experimental: In this example, analytical size-exclusion chromatography (SEC) was used to analyze the protein sample for purity and polymer form. An analytical chromatography column TSKgel G3000SWxl (Tosoh Bioscience, #08541, 5 μm, 7.8 mm×30 cm) was connected to a high performance liquid chromatography HPLC (Agilent Technologies, Agilent 1260 Infinity II) and equilibrated with a PBS buffer at room temperature for at least 1 h. A proper amount of the protein sample (at least 10 μg) was filtered through a 0.22 μm filter membrane and then injected into the system, and an HPLC program was set: the sample was passed through the chromatography column with PBS buffer at a flow rate of 1.0 mL/min for a maximum of 25 min. The detection wavelength was 280 nm. Operation was performed at room temperature. After being recorded, the chromatogram was integrated using ChemStation software and relevant data were calculated. An analysis was generated, with the retention time of the components with different molecular sizes in the sample reported.

[2] = Melting temperature (Tm1) of proteins by DSF; type: physicochemical; conditions: minimum melting temperature
Experimental: Differential scanning fluorimetry (DSF) is a commonly used high-throughput method for determining the thermostability of proteins. In this method, changes in the fluorescence intensity of the dye that binds to unfolded protein molecules were monitored using a real-time quantitative fluorescence PCR instrument to reflect the denaturation process of the protein and thus to reflect the thermostability of the protein. In this example, the melting temperature (Tm) of a protein molecule was measured by DSF. 10 μg of protein was added to a 96-well PCR plate (Thermo, #AB-0700/W), followed by the addition of 2 μL of 100× diluted dye SYPRO™ (Invitrogen, #2008138), and then the mixture in each well was brought to a final volume of 40 μL by adding buffer. […] The FRET scanning mode was used and data analysis was performed using Bio-Rad CFX Maestro software to calculate the Tm of the sample.
The antigen-binding protein derived from PR004433 in Table 0-3 was expressed and purified according to the method described in 0, and the SEC-HPLC method described in 0 was used to analyze the purity and the DSF method described in 0 was used to determine the minimum melting temperature (Tm1). It can be seen that after the hinge region sequence of HCAb PR004433 is replaced with variant sequences of various linker peptides, and Cys6 and Cys2 are separated by at least 3 other amino acids, the variant sequences derived from PR004433 can be effectively expressed, and the expression yield and thermostability Tm1 of the vast majority of variant molecules are not affected.

B1: PR006032: PR004433 variant, linker peptide Hinge3_6, SEQ ID NO: 107 (antibody)
heavy: EVQLVETGGGLIQPGGSLRLSCAASGFTVSDSYMTWVRQAPGKGLEWVSVIFSGGRTYYSDSVKGRFTISRDNAKNTLYLQMNSLRAEDTALYYCARRNYDDTRGTDVFDIWGQGTMVTVSSEPKSCAGW[not shown - human IgG1 Fc]
SEC-HPLC purity (%) [1]: 96.89%
DSF Tm1 (° C.) [2]: 56.6 °C

B2: PR006033: PR004433 variant, linker peptide Hinge3_18, SEQ ID NO: 108 (antibody)
heavy: B1 heavy with A128N, G129V, W130A
SEC-HPLC purity (%) [1]: 95.66%
DSF Tm1 (° C.) [2]: 54.6 °C

B3: PR006035: PR004433 variant, linker peptide Hinge4_6, SEQ ID NO: 110 (antibody)
heavy: EVQLVETGGGLIQPGGSLRLSCAASGFTVSDSYMTWVRQAPGKGLEWVSVIFSGGRTYYSDSVKGRFTISRDNAKNTLYLQMNSLRAEDTALYYCARRNYDDTRGTDVFDIWGQGTMVTVSSEPKSCRDAR[not shown - human IgG1 Fc]
SEC-HPLC purity (%) [1]: 99.33%
DSF Tm1 (° C.) [2]: 54.4 °C

B4: PR006036: PR004433 variant, linker peptide Hinge4_15, SEQ ID NO: 111 (antibody)
heavy: B3 heavy with D129G, A130T, R131L
SEC-HPLC purity (%) [1]: 99.55%
DSF Tm1 (° C.) [2]: 54.2 °C

B5: PR006038: PR004433 variant, linker peptide Hinge5_12, SEQ ID NO: 113 (antibody)
heavy: EVQLVETGGGLIQPGGSLRLSCAASGFTVSDSYMTWVRQAPGKGLEWVSVIFSGGRTYYSDSVKGRFTISRDNAKNTLYLQMNSLRAEDTALYYCARRNYDDTRGTDVFDIWGQGTMVTVSSEPKSCKDYGR[not shown - human IgG1 Fc]
SEC-HPLC purity (%) [1]: 99.58%
DSF Tm1 (° C.) [2]: 54.6 °C

B6: PR006039: PR004433 variant, linker peptide Hinge5_13, SEQ ID NO: 114 (antibody)
heavy: B5 heavy with K128S, Y130N, G131H, R132D
SEC-HPLC purity (%) [1]: 99.23%
DSF Tm1 (° C.) [2]: 55.6 °C

B7: PR006041: PR004433 variant, linker peptide Hinge6_15, SEQ ID NO: 116 (antibody)
heavy: EVQLVETGGGLIQPGGSLRLSCAASGFTVSDSYMTWVRQAPGKGLEWVSVIFSGGRTYYSDSVKGRFTISRDNAKNTLYLQMNSLRAEDTALYYCARRNYDDTRGTDVFDIWGQGTMVTVSSEPKSCSGPSTL[not shown - human IgG1 Fc]
SEC-HPLC purity (%) [1]: 99.12%
DSF Tm1 (° C.) [2]: 55.2 °C

B8: PR006042: PR004433 variant, linker peptide Hinge6_18, SEQ ID NO: 117 (antibody)
heavy: B7 heavy with G129A, P130V, S131P, T132R, L133R
SEC-HPLC purity (%) [1]: 99.05%
DSF Tm1 (° C.) [2]: 54.4 °C

B9: PR006310: PR004433 variant, linker peptide Hinge7_2, SEQ ID NO: 118 (antibody)
heavy: EVQLVETGGGLIQPGGSLRLSCAASGFTVSDSYMTWVRQAPGKGLEWVSVIFSGGRTYYSDSVKGRFTISRDNAKNTLYLQMNSLRAEDTALYYCARRNYDDTRGTDVFDIWGQGTMVTVSSEPKSCAVLPEIG[not shown - human IgG1 Fc]
SEC-HPLC purity (%) [1]: 98.68%
DSF Tm1 (° C.) [2]: 55.0 °C

B10: PR006313: PR004433 variant, linker peptide Hinge8_8, SEQ ID NO: 121 (protein)
chain: EVQLVETGGGLIQPGGSLRLSCAASGFTVSDSYMTWVRQAPGKGLEWVSVIFSGGRTYYSDSVKGRFTISRDNAKNTLYLQMNSLRAEDTALYYCARRNYDDTRGTDVFDIWGQGTMVTVSSEPKSCMPRLLFHS[not shown - human IgG1 Fc]
modifications: PR006313 chain
SEC-HPLC purity (%) [1]: 97.28%
DSF Tm1 (° C.) [2]: 49.2 °C

B11: PR006315: PR004433 variant, linker peptide Hinge8_20, SEQ ID NO: 123 (protein)
chain: B10 chain with M128R, P129M, R130T, L131V, L132Y, F133G, H134S, S135R
modifications: PR006315 chain
SEC-HPLC purity (%) [1]: 99.38%
DSF Tm1 (° C.) [2]: 51.8 °C

B12: PR006316: PR004433 variant, linker peptide Hinge9_5, SEQ ID NO: 124 (protein)
chain: EVQLVETGGGLIQPGGSLRLSCAASGFTVSDSYMTWVRQAPGKGLEWVSVIFSGGRTYYSDSVKGRFTISRDNAKNTLYLQMNSLRAEDTALYYCARRNYDDTRGTDVFDIWGQGTMVTVSSEPKSCLALPGVMSP[not shown - human IgG1 Fc]
modifications: PR006316 chain
SEC-HPLC purity (%) [1]: 99.15%
DSF Tm1 (° C.) [2]: 53.6 °C

B13: PR006318: PR004433 variant, linker peptide Hinge9_14, SEQ ID NO: 126 (protein)
chain: B12 chain with L128G, A129G, L130G, G132F, V133L, M134W, S135L, P136V
modifications: PR006318 chain
SEC-HPLC purity (%) [1]: 86.91%
DSF Tm1 (° C.) [2]: 47.4 °C

B14: PR006319: PR004433 variant, linker peptide Hinge10_3, SEQ ID NO: 127 (protein)
chain: EVQLVETGGGLIQPGGSLRLSCAASGFTVSDSYMTWVRQAPGKGLEWVSVIFSGGRTYYSDSVKGRFTISRDNAKNTLYLQMNSLRAEDTALYYCARRNYDDTRGTDVFDIWGQGTMVTVSSEPKSCQMSVFARHFP[not shown - human IgG1 Fc]
modifications: PR006319 chain
SEC-HPLC purity (%) [1]: 100.00%
DSF Tm1 (° C.) [2]: 52.8 °C

B15: PR006321: PR004433 variant, linker peptide Hinge10_7, SEQ ID NO: 129 (protein)
chain: B14 chain with Q128I, M129T, S130E, V131W, F132S, A133V, H135D, F136L, P137Q
modifications: PR006321 chain
SEC-HPLC purity (%) [1]: 94.49%
DSF Tm1 (° C.) [2]: 55.2 °C
